# The other results are listed elsewhere or left out.
# B1: PX9937B-bvu-524-33-524 (Bacteroides vulgatus) (protein)
# chain: GTAYWKNPDQFTAFNTGLHALLREKSYNFFLLGEPRADIYGDNPIGGEASQGMERLPFNTINKENVGISNYGDMYKIINQINQMIAKTTETTILTEATQNYYLGEAYGMRAYLYFHLLRSWGDVVLYLDYTEGQNLDLSNITKGVSPATEVMEQIKKDIQASENAFGSDYSFKLGRHFWSAAATQMLKGEAYLWSGRQMNGGNSDYTIAKNAFENVKKADVGLVTSSFKDIFSFENKKNKEMIFTIHNGKDEYEMWGGYYRMRLIPAQDKMVKIYCDENGNSFVGTPDAQLNGLTQLQVRREFYFKGFRNNDTRWTTSLKAVYKKDAQGVVSYFGPITYKFQGTMLEGGSTRSFLDDFPIYRYADCLLQLAMAKVLLGEDPTEEINAVRERAYGSKYFNEHKAEIAYPNDNDPEFYTDNKWMKPDNAGALEAILKERLREFMFEGKRWYDIRLLGWDYVHQYSSAEQSRLLWPIDAGTLTNNSALKQTPGYE
# What was measured:
# Test in all cases: glycan array binding signal (z-score within array); higher = stronger binding
# Settings in all cases: glycan notation: IUPAC condensed, linker removed
# Gal(b1-4)Glc = molecular target: Gal(b1-4)Glc
# Outline: (§1)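 The binding signal is a Z-score computed within each array. Data were drawn from 3228 arrays in the Consortium for Functional Glycomics database, restricted to those with a known protein sequence. Scores were averaged over arrays of the same protein sequence at different concentrations or buffers, and over linkers, and negative values can be taken as non-binding.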
# Gal(b1-4)Glc6S = molecular target: Gal(b1-4)Glc6S
# Outline: as §1
# Gal(b1-4)GlcNAc = molecular target: Gal(b1-4)GlcNAc
# Outline: as §1
# [1] = molecular target: Gal(b1-4)GlcNAc(a1-6)Gal(b1-4)GlcNAc
# Outline: as §1
# Gal(b1-4)GlcNAc(b1-2)Man = molecular target: Gal(b1-4)GlcNAc(b1-2)Man
# Outline: as §1
# [2] = molecular target: Gal(b1-4)GlcNAc(b1-2)Man(a1-3)Man(b1-4)GlcNAc(b1-4)GlcNAc
# Outline: as §1
# [3] = molecular target: Gal(b1-4)GlcNAc(b1-2)Man(a1-3)[Gal(b1-4)GlcNAc(b1-2)Man(a1-6)]Man(b1-4)GlcNAc(b1-4)GlcNAc
# Outline: as §1
# [4] = molecular target: Gal(b1-4)GlcNAc(b1-2)Man(a1-3)[Gal(b1-4)GlcNAc(b1-2)Man(a1-6)]Man(b1-4)GlcNAc(b1-4)[Fuc(a1-6)]GlcNAc
# Outline: as §1
# [5] = molecular target: Gal(b1-4)GlcNAc(b1-2)Man(a1-3)[Gal(b1-4)GlcNAc(b1-2)Man(a1-6)][Gal(b1-4)GlcNAc(b1-4)]Man(b1-4)GlcNAc(b1-4)[Fuc(a1-6)]GlcNAc
# Outline: as §1
# [6] = molecular target: Gal(b1-4)GlcNAc(b1-2)Man(a1-3)[Gal(b1-4)GlcNAc(b1-2)Man(a1-6)][GlcNAc(b1-4)]Man(b1-4)GlcNAc(b1-4)[Fuc(a1-6)]GlcNAc
# Outline: as §1
# [7] = molecular target: Gal(b1-4)GlcNAc(b1-2)Man(a1-3)[GlcNAc(b1-2)Man(a1-6)]Man(b1-4)GlcNAc(b1-4)GlcNAc
# Outline: as §1
# [8] = molecular target: Gal(b1-4)GlcNAc(b1-2)Man(a1-3)[GlcNAc(b1-4)][Gal(b1-4)GlcNAc(b1-2)Man(a1-6)]Man(b1-4)GlcNAc(b1-4)GlcNAc
# Outline: as §1
# [9] = molecular target: Gal(b1-4)GlcNAc(b1-2)Man(a1-3)[Man(a1-6)]Man(b1-4)GlcNAc(b1-4)GlcNAc
# Outline: as §1
# [10] = molecular target: Gal(b1-4)GlcNAc(b1-2)Man(a1-6)Man(b1-4)GlcNAc(b1-4)GlcNAc
# Outline: as §1
# [11] = molecular target: Gal(b1-4)GlcNAc(b1-2)Man(a1-6)[GlcNAc(b1-2)Man(a1-3)]Man(b1-4)GlcNAc(b1-4)GlcNAc
# Outline: as §1
# [12] = molecular target: Gal(b1-4)GlcNAc(b1-2)Man(a1-6)[Man(a1-3)]Man(b1-4)GlcNAc(b1-4)GlcNAc
# Outline: as §1
# [13] = molecular target: Gal(b1-4)GlcNAc(b1-2)[Gal(b1-4)GlcNAc(b1-4)]Man(a1-3)[Gal(b1-4)GlcNAc(b1-2)Man(a1-6)]Man(b1-4)GlcNAc(b1-4)GlcNAc
# Outline: as §1
# [14] = molecular target: Gal(b1-4)GlcNAc(b1-2)[Gal(b1-4)GlcNAc(b1-4)]Man(a1-3)[Gal(b1-4)GlcNAc(b1-2)[Gal(b1-4)GlcNAc(b1-6)]Man(a1-6)]Man(b1-4)GlcNAc(b1-4)GlcNAc
# Outline: as §1
# [15] = molecular target: Gal(b1-4)GlcNAc(b1-2)[Gal(b1-4)GlcNAc(b1-4)]Man(a1-3)[GlcNAc(b1-4)][Gal(b1-4)GlcNAc(b1-2)Man(a1-6)]Man(b1-4)GlcNAc(b1-4)GlcNAc
# Outline: as §1
# [16] = molecular target: Gal(b1-4)GlcNAc(b1-2)[Gal(b1-4)GlcNAc(b1-4)]Man(a1-3)[GlcNAc(b1-4)][Gal(b1-4)GlcNAc(b1-2)[Gal(b1-4)GlcNAc(b1-6)]Man(a1-6)]Man(b1-4)GlcNAc(b1-4)GlcNAc
# Outline: as §1
# [17] = molecular target: Gal(b1-4)GlcNAc(b1-2)[Gal(b1-4)GlcNAc(b1-6)]Man(a1-6)[Gal(b1-4)GlcNAc(b1-2)Man(a1-3)]Man(b1-4)GlcNAc(b1-4)GlcNAc
# Outline: as §1
# [18] = molecular target: Gal(b1-4)GlcNAc(b1-2)[Gal(b1-4)GlcNAc(b1-6)]Man(a1-6)[Gal(b1-4)GlcNAc(b1-2)Man(a1-3)]Man(b1-4)GlcNAc(b1-4)[Fuc(a1-6)]GlcNAc
# Outline: as §1
binder,measurement,setting,value
B1,glycan array binding signal (z-score),Gal(b1-4)Glc,-0.336
same,glycan array binding signal (z-score),Gal(b1-4)Glc6S,-0.368
same,glycan array binding signal (z-score),Gal(b1-4)GlcNAc,-0.306
same,glycan array binding signal (z-score),[1],-0.482
same,glycan array binding signal (z-score),Gal(b1-4)GlcNAc(b1-2)Man,-0.274
same,glycan array binding signal (z-score),[2],-0.338
same,glycan array binding signal (z-score),[3],0.187
same,glycan array binding signal (z-score),[4],0.493
same,glycan array binding signal (z-score),[5],-0.02
same,glycan array binding signal (z-score),[6],-0.553
same,glycan array binding signal (z-score),[7],0.006
same,glycan array binding signal (z-score),[8],-0.463
same,glycan array binding signal (z-score),[9],0.053
same,glycan array binding signal (z-score),[10],-0.347
same,glycan array binding signal (z-score),[11],-0.149
same,glycan array binding signal (z-score),[12],0.429
same,glycan array binding signal (z-score),[13],-0.111
same,glycan array binding signal (z-score),[14],-0.25
same,glycan array binding signal (z-score),[15],-0.238
same,glycan array binding signal (z-score),[16],-0.39
same,glycan array binding signal (z-score),[17],0.111
same,glycan array binding signal (z-score),[18],-0.295

# From the supplement of paper PMC8728848
